Reference: the supplement of paper PMC10126150
Sequences with one replicate were seen in a single cluster, so their values are uncertain.

Tested on: ATP
Assay: switch fluorescence ratio, 500 uM ATP over buffer (Cy3 cluster intensity, sum of 5 cycles each) (fold (ratio)); higher = stronger signal-on switching upon ATP binding; sequences stand for … in TCGTCGGCAGCGTCAGATGTGTATAAGAGACAGTTTTTTTTTTTTTTTTTTTTTTTTT…TC
Conditions: aptamer strand: ATP DNA aptamer (quencher-CACCTGGGGGAGTATTGCGGAGGAAGG + anchor), 100 nM annealed; ATP concentration: 500 uM; one replicate
Method in brief: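 Five buffer/ATP imaging cycles were run on Cy3-labelled switching-strand clusters on a modified Illumina MiSeq flow-cell, with NaOH stripping and re-annealing between cycles. In each cycle, clusters annealed to 100 nM quencher-labelled ATP aptamer were imaged in selection buffer, then after 15 min with 500 uM ATP at 22 °C. Per cluster, the fluorescence ratio is summed target-cycle over summed buffer-cycle Cy3 intensity, averaged per switch-domain sequence. Only clusters within 100-1000 RFU were kept.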
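Also: ATP exposure 15 min at 22 °C before imaging.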

Sequence | switch fluorescence ratio
CAGTGCTA | 1.01
TACGTGCAGG | 1
TCAGTAGTTT | 0.985
AGTTTCTCAG | 1.04
AAGAAACTGC | 1.07
GCATGGTTAC | 1.14
CCTGACCACC | 1.36
CAGAGTTAGC | 0.975
CTATCCAATA | 1.21
ATGCGAGGGA | 1.05
TAAGCTATGA | 1.04
GTGATTAGC | 1.05
GCTTTATTTG | 1.01
GAGTCGTGTA | 1.06
AACTACATTT | 1.02
TCACTACATT | 1.08
TAATCACAGA | 1.01
CGTTCTCGTT | 0.952
ACGAGCACA | 2.56
GCAAACAGC | 1.01
GACTAACACA | 1.21
CATGGCAGGG | 1.05
TGCCTTTAAC | 1

Sequence | switch fluorescence ratio
ATGACCTTTT | 1.05
TGGAAGAAGC | 1
TCCTATGTA | 1.01
CGATAAGTCG | 0.988
GGGAACAAC | 0.993
GCTGGGCTCC | 1.06
CTCATTTAAC | 1.04
TTCCATTGT | 1.03
CCCGGTACGA | 1.23
CTGCCCAGTG | 3.61
AGGTTGATGC | 0.935
CACAGGGGCA | 1.45
TCACTGGG | 1
CAGTGGTCCC | 0.973
ACTAAAGTTT | 1.02
TGTTCGTGGC | 1.11
AAGATCGGCC | 0.986
AAATACGGTC | 1.09
GTGTATGCCT | 0.956
ATGGATAACG | 0.959
TCTTGTCAAT | 1.06
CCTTCTGTAA | 3.61
TCTAAGACTG | 1.02

Sequence | switch fluorescence ratio
AGCCAGTGAG | 1.04
GCTTCTTCGT | 1.07
CGGCCCCTGT | 1.05
TCTAGACTTC | 0.984
TCACATATGT | 1.01
TCGCTGAGTA | 1.02
ACAATTAATC | 1.04
CCATATGAAT | 1.03
CGTGTCCAGA | 0.997
ATCAGCTCCG | 1.06
ATACCATTGT | 0.988
TTTTCGGAT | 0.988
GGTACGCCCC | 1.12
CTAGCTATGC | 1.29
ATTATCTC | 0.962
GAGCCCGGAA | 1.09
GGTGCATCTA | 0.976
GACCAAGTG | 0.961
TTGAGATTG | 0.945
TACGGGTGCG | 0.959
TCCAATTGGC | 1.07
TACAGCATGT | 0.953
TCTCTGCGTA | 1.87

Sequence | switch fluorescence ratio
CAGGGGAGT | 1.03
TTCGTCTTTG | 0.956
TTCATTACCT | 1.16
GTCCTTATGC | 1.04
AGCGTGACTA | 0.993
AAGTTAAGAG | 1.02
ATGTGTTCTT | 0.989
TACTCCTCAA | 5.72
AAAAGTCCCC | 0.976
TAACCATTGA | 1.03
TTGTTTGACT | 0.99
GAACGCAGTT | 0.983
AAACGTAT | 1.06
GTGAGTGATG | 1.01
CAAGTTTAGA | 1
GCCACGCCCC | 1.95
ATAGGGAGAT | 0.996
GGTAATTAGT | 1
TACGGTGAGT | 0.997
TGGAAGCAGC | 1.08
CATTGCGCAC | 1.42
CACAACTGC | 1.04
TCTCTCGTGG | 0.971

Sequence | switch fluorescence ratio
GGTTAAAAGA | 1.03
CAACTGAGGC | 1.01
CCAGCTATAG | 3.28
AAGGCTGGGC | 0.996
CCTTTGGTAC | 2.33
CCCGGGCTTT | 1.02
TTGGAGTGC | 1.02
GACTGGCCTG | 0.989
GTTTGGCGCA | 0.974
ATGCATTGGG | 0.971
TCAAGATTGT | 0.995
GGATCAATCT | 0.974
TTAATAGACC | 1.07
CAGTTAAAAT | 0.987
TATCGTAAAG | 0.993
CAAGTTCTCA | 1.04
ACGGCTGCTA | 1.08
AATTCTTCAT | 0.95
ACCACCAGTT | 1.19
GTAGTACTTG | 1.04
GTATACCGTG | 0.966
CTTAAAAGCA | 0.981
TTTGCGCGAT | 1.61

Sequence | switch fluorescence ratio
CTTTACACAT | 1.08
TGCCTAACCA | 0.946
TCTTGCGACA | 1.01
ATTCTAGGAG | 0.992
AGCCGGTAAT | 1.02
CGTCTGAAGA | 0.986
GACCCACGGA | 1.01
GATGCGGGCC | 1.03
CGACCGCGTG | 0.974
CTATCAGTTT | 0.982
ATGATTTGAT | 0.978
TAGCAGCTCC | 2
GCAAACGGGT | 1.03
TTTAGGCAGA | 1.01
TCGTTTTTAA | 0.998
TCCTGACTCC | 2.75
GATAGAGTA | 0.99
ACCTGCCTCA | 2.86
GGCGTCAGCT | 0.986
TGGATAGAAG | 1.04
TTAATGAAAG | 1.02
TCTCGAATTT | 1.01
CCGTGAATGG | 2.43

Sequence | switch fluorescence ratio
CGCCAAGTCG | 0.988
GCATCTAGGA | 0.965
TCAGCTAG | 1.22
GAATGCAGG | 0.946
ATAAAGTTCT | 0.967
ATATCACGGT | 1.02
TTTACGATCT | 1.01
CCTTGTTTT | 1.01
TTAGACTATA | 1.04
CCGCGCATCA | 3.92
AAAGGTGTCA | 1.06
ACCTACACGT | 1.23
TTGATTCTTA | 0.964
GGTACCCCAT | 0.963
TGTTGGATAC | 1.45
ATCAAGGCTG | 1.14
TTGCATCGTA | 1.03
GTCACCAGGC | 0.963
GTAGAACCCC | 1.07
TTGGGAGGAA | 1.01
